Data published in the supplement of paper PMC10338343.
± gives the standard deviation. The full ranking holds about 6,600 sequences; the median of “pre-steady-state target cleavage rate” is about 0.07, and the highest 2% start at about 0.72. Only a part is listed here, and it is no random draw.

Each sequence was assayed on MIWI (PIWIL1) piRISC loaded with Kctd7 piRNA (30 nt) (assay: pre-steady-state target cleavage rate (min^-1); MIWI and MILI are mouse PIWI proteins and EfPiwi is from a freshwater sponge; tags in brackets are library labels; higher = faster piRNA-guided slicing of the target). Conditions: guide: Kctd7 piRNA 5'p-UGUUAAUCUCUCAGAGAAGGUGACAGUGAU; auxiliary factor: 500 nM mouse GTSF1.
Outline: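 Active affinity-purified piRISC (1 nM) loaded with one synthetic guide was mixed with a transcribed, DNA-blocked target RNA library (0.1 nM), with or without 500 nM GTSF1 partner protein, in HEPES–potassium acetate buffer at 33 °C for 0–8 or 0–960 min. Uncleaved targets were sequenced, normalised to depth and to weakly complementary targets, and pooled across three trials, with k3 capped at 0.0001 min^-1. The pre-steady-state cleavage rate was determined with a burst-and-steady-state fit.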

Sequence | pre-steady-state target cleavage rate
UAGUGAGUCACCUUCUCUGUGAGAUAUUGA | 0.00571 ± 0.0037
UAGUGAGUCACCUUCUCUGAGAGAUAUACA | 0.207 ± 0.029
UAGUGUGUGACCUUCUCUGAGAGAUAAACA | 0.331 ± 0.037
UAGUGUGUCAGCUUCUGUGAGAGAUUAACA | 0.442 ± 0.029
UUCACUGUCACCUUCUCUGAAAGAUUAACA | 0.477 ± 0.02
UAGUGUGUCACCUUCUCUGAGAGAAAUAGA | 0.00826 ± 0.0048
AUCACUGUCACCUUCUCUGACGAGAUUAACA | 0.0322 ± 0.0096
UAGUGAGUCACCUUCUCUGAGACAUAAACA | 0.16 ± 0.046
UAGUGACUCACCUCCUCUGAGAGAUUAACA | 0.504 ± 0.034
UUCACUGUCACCUUCUCUGUGAGAUUAACA | 0.26 ± 0.015
UACACUGUCACCUUCUCAGAGAGAUAAACA | 0.0806 ± 0.01
UUCACUGUCACCUUCUCACAGAGAUUUUGA | 0.00887 ± 0.0043
UAGACUGUCACCUUCUGUGAGAGUUUAACA | 0.114 ± 0.018
UAGUGACUCUCCUUCUCUGAGAGAUUUACA | 0.0556 ± 0.009
UAGUGUGUGACCUUCUCUGAGAGAUUAUCA | 0.163 ± 0.022
UAGUGACACACCUUCACUGAGAGUUUAACA | 0.157 ± 0.039
AUCACUCUCACCUUCUCUGACAGAUUAACA | 0.561 ± 0.025
UAGUGACAGUGGUUCUCUGAGGGAUUAACA | < 0.0001
UAGUGUGUCACCUUCUUCUGAGAGAUUAACA | 0.0196 ± 0.0064
UACACUGUCACCUUCUCUGACAGAUUUUGA | 0.00808 ± 0.005
UUCACUGUCACCUUCUCUGUCUGAUUAAGA | 0.0116 ± 0.0055
UAGUCUCUCACCUUCUCUGUGAGAUUAACA | 0.2 ± 0.015
UAGUCUGUCACCUUCUCUGAGAGAUUACCA | 0.181 ± 0.026

Sequence | pre-steady-state target cleavage rate
UUCACUGUCACCUUCUCUGUCAGAUUAUGA | 0.0162 ± 0.0084
UUCACUGUCACCUUCUCUGAGAGAAUAUGA | 0.0687 ± 0.025
UAGACUCUCACCUUCUCUGAGAGAUUAUCA | 0.197 ± 0.027
UUCUCUGUCACCUUGUCUGAGAGAUUAACA | 0.243 ± 0.031
UAGUCUGUCACCUUCUCUGAGAGAGUUAACA | 0.491 ± 0.065
UAGUGACACACCUUCUCUGCGAGAUUAACA | 0.311 ± 0.035
UAGUGACAGACCUUCUCAGAGAGAUUAUCA | 0.00707 ± 0.0056
UUCACUGUGACGUUCUCUGAGAGAUUAACA | 0.59 ± 0.026
UUCACUGUCACCUUCUCUGAGAGAUUACACA | 0.374 ± 0.054
UAGUGAGUCACGAUCUCUGAGAGAUUAAGA | 0.0535 ± 0.012
UAGUGACUCACCUUCUCUGAGAGAUUAACCA | 0.341 ± 0.028
UAGUGACACACGUUCUCUGUGAGAUUAACA | 0.048 ± 0.0071
UAGUGACAGUCCUUCACUGAGACAUUAACA | 0.00862 ± 0.0032
UAGUCUGUCAGCAUCUCUGAGAGAUUAACA | 0.342 ± 0.026
AUCACUGUCACCUUCUCUGACACAUUAACA | 0.0505 ± 0.0076
UACACUGUGCACCUUCUCUGAGAGAUUAACA | 0.584 ± 0.041
UAGUCUCGUCACCUUCUCUGAGAGAUUAACA | 0.571 ± 0.025
UAGUCUGUCACCAUCUCUGAGACAUUAACA | 0.0849 ± 0.011
AUCACUAUCACCUUCUCUGAGAGAUUAACA | 0.655 ± 0.037
UAGUGACAGUGGAACUCUGAGAGUUAACA | < 0.0001
UAGUGACAGUGCUUCUCUGUGACAUUAACA | < 0.0001
UAGUGAGUCACCUUCUCUGAGAGAAAUACA | 0.0759 ± 0.018
UUCACUGACACCUUCUCUGAGAGAUUAACA | 0.591 ± 0.033

Sequence | pre-steady-state target cleavage rate
UUCACUGUCACCAUCUCUGACAGAUUAACA | 0.216 ± 0.021
UAGUGAGUCACCUUCUCUGAGAGAAUAUCA | 0.124 ± 0.041
AUCACUGUGACCUUCUCUGAGAGAUUAUGA | 0.141 ± 0.028
AUCACUGUCACCUUCACUGAGAGAUUAACA | 0.589 ± 0.041
UAGACUGUCACCUUCACUGAGAGAUUAUCA | 0.345 ± 0.058
UAGUGACAGUGGAAGAGACAGAGACUUAACA | < 0.0001
UAGUGUGUCACCUUCUCUGACACAUUAACA | 0.00703 ± 0.0044
UUCACUGUCACCUUCUCUGACACAUUAACA | 0.0791 ± 0.0098
UAGUGACACACUUCUCUGAGAGAUUAACA | 0.213 ± 0.02
AUCACUCUCACCUUCUCUGAGAGAAUAACA | 0.196 ± 0.033
UAGUGUGUCACCUUGUCUGAGAGAUUUACA | 0.0723 ± 0.022
AUCACUGUCACCUUCUGUGAGAGAAUAACA | 0.237 ± 0.038
UAGACUGUCACCAUCUCUGAGAGAUUAUCA | 0.252 ± 0.032
UUCACUGUCACCUACUCUCAGAGAUUAACA | 0.0671 ± 0.0072
UAGACUGUCAGCUUCUCUGAGAGAUUUACA | 0.17 ± 0.029
UAGUGAGACACCUUCUCUGAGACAUUAACA | 0.0818 ± 0.012
UAGUGACAGACCUUCUGUGAGAGUUUAACA | 0.0265 ± 0.0065
UAGUGUGUCACCUUCCCUGAGAGAUUAACA | 0.373 ± 0.057
UAGUGUGCCACCUUCUCUGAGAGAUUAACA | 0.625 ± 0.05
UAGACACACACCUUCUCUGAGAGAUUAUGA | 0.0824 ± 0.022
AUCACUGUCACCUCUCUCUGAGAGAUUAACA | 0.515 ± 0.031
UAGACAGUCACCUUCUCUGAGAGAUUAAGA | 0.164 ± 0.025
UAGUGAGUCACCUUCUGUGAGAGAUUAAGA | 0.0688 ± 0.015

Sequence | pre-steady-state target cleavage rate
UUCACUCAGACCUUCUCUGAGAGAUUAACA | 0.431 ± 0.024
AUGACUGUCACCUUCUCUGAGAGUUUAACA | 0.276 ± 0.039
UAGUGAGACACCUUCUCUGAGAGAUUAUGA | 0.0557 ± 0.014
UAGUGAGUGACCUUCUGUGAGAGAUUAACA | 0.342 ± 0.023
UAGUGAGUCACCUUCUCUGACAGAUUAUCA | 0.0598 ± 0.014
UAGUCUGUCACCUUCUCUGAGACUUUAACA | 0.0402 ± 0.011
UAGUGACUCACCUUCUCUGUGAGAUUAACA | 0.168 ± 0.013
UAGUGACAGGCCUUCUCUGAGAGAUUAACA | 0.123 ± 0.014
UAGUGACAGACCUUCACUGAGACAUUAACA | 0.018 ± 0.006
UAGUGACUCACCUUCUCUGAGAGUAAAACA | 0.0828 ± 0.011
UAGACCUGUCACCUUCUCUGAGAGAUUAACA | 0.652 ± 0.043
AUCACUGUCACCUUCUCUCAGAGAUUUACA | 0.125 ± 0.018
UAGUGACUCACCUUCUCAGACAGAUUAACA | 0.0193 ± 0.0039
UAGACAGUCACCUUCUCUGAGAGAUUAUGA | 0.101 ± 0.017
AUCACUGUCACCUUCACUGAGAGUUUAACA | 0.576 ± 0.098
AUCACUGUCACCUAGUCUGAGAGAUUAACA | 0.627 ± 0.025
UAGUGACAGUGCUUCUCUGAGAGAUUAACCA | 0.0112 ± 0.0033
UACACUGUCACCUUCUCUGUGUGAUUAACA | 0.0208 ± 0.011
UAGUGACAGUGCAUCUCUGAGAGAUUAAGA | < 0.0001
UACACUGUCACCUUGUCUCAGAGAUUAACA | 0.0344 ± 0.0058
UAGUGUGUCACCUUCUCUGAGAGAUAAUCA | 0.143 ± 0.036
AUCACACUCACCUUCUCUGAGAGAUUAACA | 0.643 ± 0.04
UAGUGUGUCACGCUUCUCUGAGAGAUUAACA | 0.411 ± 0.028
